Test results reported in publication PMC10810860.
These are yes or no findings as the source states them, for the method shown. In cells and extracts the contact can be indirect.

Amino acid sequences for entries named in this document (tags omitted).
UniProt Q16665: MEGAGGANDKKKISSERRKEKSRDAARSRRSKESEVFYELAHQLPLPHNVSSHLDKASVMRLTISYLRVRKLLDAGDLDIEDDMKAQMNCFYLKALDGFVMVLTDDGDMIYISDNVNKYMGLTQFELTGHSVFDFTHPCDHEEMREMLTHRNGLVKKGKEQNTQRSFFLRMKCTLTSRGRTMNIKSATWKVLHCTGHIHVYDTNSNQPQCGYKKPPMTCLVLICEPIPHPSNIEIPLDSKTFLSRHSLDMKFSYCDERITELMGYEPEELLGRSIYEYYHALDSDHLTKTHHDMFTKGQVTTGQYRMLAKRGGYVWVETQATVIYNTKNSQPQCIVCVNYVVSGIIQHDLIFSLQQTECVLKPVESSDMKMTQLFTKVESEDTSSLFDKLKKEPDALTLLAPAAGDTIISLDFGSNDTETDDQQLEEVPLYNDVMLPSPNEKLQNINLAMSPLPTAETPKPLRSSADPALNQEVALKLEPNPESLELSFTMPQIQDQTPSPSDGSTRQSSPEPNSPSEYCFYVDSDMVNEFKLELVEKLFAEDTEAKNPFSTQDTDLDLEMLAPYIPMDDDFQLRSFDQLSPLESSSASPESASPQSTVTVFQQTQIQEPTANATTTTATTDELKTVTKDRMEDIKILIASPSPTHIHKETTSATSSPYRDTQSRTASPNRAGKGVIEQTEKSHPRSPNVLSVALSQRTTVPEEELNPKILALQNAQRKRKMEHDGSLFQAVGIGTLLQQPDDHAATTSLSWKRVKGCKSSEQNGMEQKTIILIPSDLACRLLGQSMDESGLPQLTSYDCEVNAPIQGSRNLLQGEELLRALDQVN

What was measured:
[1] = target: HIF1α (hypoxia-inducible factor 1 alpha), full-length, expressed by transfection, Q16665; assay: co-IP; co-IP/IB from lysates of HEK293T cells transfected as indicated (antibody with Protein A/G agarose overnight, then immunoblot); settings: remark: other sources report otherwise
[2] = target: HIF1α (hypoxia-inducible factor 1 alpha), full-length, expressed by transfection (UniProt Q16665); assay: as above

| Binder | binding [1] | binding [2] |
| --- | --- | --- |
| HOIL-1L (large isoform of heme-oxidized iron regulatory protein 2 ubiquitin ligase 1), expressed by transfection, Q9BYM8-1 1-510 (protein) MDEKTKKAEEMALSLTRAVAGGDEQVAMKCAIWLAEQRVPLSVQLKPEVSPTQDIRLWVSVEDAQMHTVTIWLTVRPDMTVASLKDMVFLDYGFPPVLQQWVIGQRLARDQETLHSHGVRQNGDSAYLYLLSARNTSLNPQELQRERQLRMLEDLGFKDLTLQPRGPLEPGPPKPGVPQEPGRGQPDAVPEPPPVGWQCPGCTFINKPTRPGCEMCCRARPEAYQVPASYQPDEEERARLAGEEEALRQYQQRKQQQQEGNYLQHVQLDQRSLVLNTEPAECPVCYSVLAPGEAVVLRECLHTFCRECLQGTIRNSQEAEVSCPFIDNTYSCSGKLLEREIKALLTPEDYQRFLDLGISIAENRSAFSYHCKTPDCKGWCFFEDDVNEFTCPVCFHVNCLLCKAIHEQMNCKEYQEDLALRAQNDVAARQTTEMLKVMLQQGEAMRCPQCQIVVQKKDGCDWIRCTVCHTEICWVTKGPRWGPGGPGDTSGGCRCRVNGIPCHPSCQNCH | no binding | – |
| Sharpin (SHANK-associated RH domain-interacting protein), expressed by transfection (protein, UniProt Q9H0F6 1-387) MAPPAGGAAAAASDLGSAAVLLAVHAAVRPLGAGPDAEAQLRRLQLSADPERPGRFRLELLGAGPGAVNLEWPLESVSYTIRGPTQHELQPPPGGPGTLSLHFLNPQEAQRWAVLVRGATVEGQNGSKSNSPPALGPEACPVSLPSPPEASTLKGPPPEADLPRSPGNLTEREELAGSLARAIAGGDEKGAAQVAAVLAQHRVALSVQLQEACFPPGPIRLQVTLEDAASAASAASSAHVALQVHPHCTVAALQEQVFSELGFPPAVQRWVIGRCLCVPERSLASYGVRQDGDPAFLYLLSAPREAPATGPSPQHPQKMDGELGRLFPPSLGLPPGPQPAASSLPSPLQPSWSCPSCTFINAPDRPGCEMCSTQRPCTWDPLAAAST | – | no binding |
